Reference: patent US20260166128A1, “HUMAN AMYLIN ANALOG, AND DERIVATIVE THEREOF AND USE THEREOF” (priority 2022, published 2026)
Not every detail of the peptide structures is certain; ends, links or a residue may be inferred. Some compounds share one wording; it may come from a single statement. Numbered stars: 1 amine (or outer) side, 2 acyl side, 3 side chain; on linkers, the order of the positions; unused ones are H or OH. Bridge positions count the residues as written; N and C are the ends. Square brackets hold non-standard residues; d marks the D form. Peptide text beside a SMILES is read from it. * marks the point of attachment. C20 diacid = O=C(O)CCCCCCCCCCCCCCCCCCC(=O)*; γGlu = O=C(O)[C@H](CCC(=O)[*:2])N[*:1]; βAsp = O=C(O)[C@H](CC(=O)[*:2])N[*:1]; Hyp = O=C(O)[C@@H]1C[C@@H](O)CN1; AEEA = NCCOCCOCC(=O)O; Inp = O=C(O)C1CCNCC1

Assays:
[1] = Freeze-thaw stability of derivatives (freeze-thaw yield by liquid chromatography); format: physicochemical; settings: for Dissolution property: appearance after dissolution at 0.2 mg/ml in 20 mM phosphate buffer solution (PB) (pH 7.0); for Freeze storage property: appearance after overnight storage at −20° C. and thawing to room temperature, 0.2 mg/ml in 20 mM PB (pH 7.0); for Freeze storage yield: concentration of polypeptide after freezing and thawing / concentration before, by liquid chromatography, −20° C. overnight
Outline: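 Freeze-thaw yield is the ratio of peptide concentration after versus before one overnight −20° C freeze and room-temperature thaw, both quantified by RP-HPLC of supernatant after centrifugation. Samples were 0.2 mg/ml freeze-dried derivative in 20 mM PB, pH 7.0.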

[2] = Study on fatty acid side chain of derivatives, weight reduction in SD rats (Example 7); format: in vivo; settings: subcutaneous, 30 nmol/kg
Text: SD rats obtained by the same method as in Example 5 were used in this experimental study. There were an experimental group E: for testing weight reduction effects of the compounds PD065 and PD187, and an experimental group F: for testing the compounds PD065, PD071, PD140, PD144, PD145, PD146 and PD147, with 5 to 8 rats in each group of the derivative test, and the rats in each group were subcutaneously administered with a derivative or a solvent by a dosage of 30 nmol/kg. The administration time of each group was recorded. After administration, the rats were put back into their cages in which food and water available for the rats were placed. Food consumption and weight changes of the rats were recorded every 24 hours by online recording or manual recording.

CC[C@H](C)[C@H](NC(=O)[C@@H]1CCCN1C(=O)[C@H](CCCCN)NC(=O)[C@H](CC(C)C)NC(=O)[C@H](CC(N)=O)NC(=O)[C@H](CC(N)=O)NC(=O)[C@H](CO)NC(=O)[C@H](CO)NC(=O)[C@H](Cc1c[nH]cn1)NC(=O)[C@H](CCCNC(=N)N)NC(=O)[C@H](CC(C)C)NC(=O)[C@H](Cc1ccccc1)NC(=O)[C@H](CC(=O)O)NC(=O)[C@H](C)NC(=O)[C@H](CC(C)C)NC(=O)[C@H](CCCNC(=N)N)NC(=O)[C@H](CCC(N)=O)NC(=O)[C@@H](NC(=O)[C@H](C)NC(=O)[C@@H]1CSSC[C@H](NC(=O)[C@H](CCCNC(=N)N)NC(=O)CC[C@H](NC(=O)CCCCCCCCCCCCCCCCCCC(=O)O)C(=O)O)C(=O)N[C@@H](CC(N)=O)C(=O)N[C@@H]([C@@H](C)O)C(=O)N[C@@H](C)C(=O)N[C@@H]([C@@H](C)O)C(=O)N1)[C@@H](C)O)C(=O)N[C@@H](CC(C)C)C(=O)N1CCC[C@H]1C(=O)N1CCC[C@H]1C(=O)N[C@H](C(=O)N[C@@H](CC(N)=O)C(=O)N[C@H](C(=O)NCC(=O)N[C@@H](CO)C(=O)N[C@@H](CC(N)=O)C(=O)N[C@H](C(=O)N1C[C@H](O)C[C@H]1C(N)=O)[C@@H](C)O)C(C)C)[C@@H](C)O [PD140] ({C20 diacid-γGlu}-RCNTATCATQRLADFLRHSSNNLKPILPPTNVGSNT[Hyp]-NH2; disulfide 2-7)
Dissolution property [1]: Clear
Freeze storage property [1]: Clear
Freeze storage yield [1]: 100.18%
activity (weight reduction effect) compared with PD065 [2]: better than that of the PD065

CC[C@H](C)[C@H](NC(=O)[C@@H]1CCCN1C(=O)[C@H](CCCCN)NC(=O)[C@H](CC(C)C)NC(=O)[C@H](CC(N)=O)NC(=O)[C@H](CC(N)=O)NC(=O)[C@H](CO)NC(=O)[C@H](CO)NC(=O)[C@H](Cc1c[nH]cn1)NC(=O)[C@H](CCCNC(=N)N)NC(=O)[C@H](CC(C)C)NC(=O)[C@H](Cc1ccccc1)NC(=O)[C@H](CC(=O)O)NC(=O)[C@H](C)NC(=O)[C@H](CC(C)C)NC(=O)[C@H](CCCNC(=N)N)NC(=O)[C@H](CCC(N)=O)NC(=O)[C@@H](NC(=O)[C@H](C)NC(=O)[C@@H]1CSSC[C@H](NC(=O)[C@H](CCCCN)NC(=O)[C@H](CC(=O)O)NC(=O)CCCCCCCCCCCCCCCCCCC(=O)O)C(=O)N[C@@H](CC(N)=O)C(=O)N[C@@H]([C@@H](C)O)C(=O)N[C@@H](C)C(=O)N[C@@H]([C@@H](C)O)C(=O)N1)[C@@H](C)O)C(=O)N[C@@H](CC(C)C)C(=O)N1CCC[C@H]1C(=O)N1CCC[C@H]1C(=O)N[C@H](C(=O)N[C@@H](CC(N)=O)C(=O)N[C@H](C(=O)NCC(=O)N[C@@H](CO)C(=O)N[C@@H](CC(N)=O)C(=O)N[C@H](C(=O)N1C[C@H](O)C[C@H]1C(N)=O)[C@@H](C)O)C(C)C)[C@@H](C)O [PD144] ({C20 diacid}-DKCNTATCATQRLADFLRHSSNNLKPILPPTNVGSNT[Hyp]-NH2; disulfide 3-8)
Dissolution property [1]: Clear
Freeze storage property [1]: Clear
Freeze storage yield [1]: 101.98%
activity (weight reduction effect) compared with PD065 [2]: better than that of the PD065

CC[C@H](C)[C@H](NC(=O)[C@@H]1CCCN1C(=O)[C@H](CCCCN)NC(=O)[C@H](CC(C)C)NC(=O)[C@H](CC(N)=O)NC(=O)[C@H](CC(N)=O)NC(=O)[C@H](CO)NC(=O)[C@H](CO)NC(=O)[C@H](Cc1c[nH]cn1)NC(=O)[C@H](CCCNC(=N)N)NC(=O)[C@H](CC(C)C)NC(=O)[C@H](Cc1ccccc1)NC(=O)[C@H](CC(=O)O)NC(=O)[C@H](C)NC(=O)[C@H](CC(C)C)NC(=O)[C@H](CCCNC(=N)N)NC(=O)[C@H](CCC(N)=O)NC(=O)[C@@H](NC(=O)[C@H](C)NC(=O)[C@@H]1CSSC[C@H](NC(=O)[C@H](CCCCN)NC(=O)C[C@H](NC(=O)CCCCCCCCCCCCCCCCCCC(=O)O)C(=O)O)C(=O)N[C@@H](CC(N)=O)C(=O)N[C@@H]([C@@H](C)O)C(=O)N[C@@H](C)C(=O)N[C@@H]([C@@H](C)O)C(=O)N1)[C@@H](C)O)C(=O)N[C@@H](CC(C)C)C(=O)N1CCC[C@H]1C(=O)N1CCC[C@H]1C(=O)N[C@H](C(=O)N[C@@H](CC(N)=O)C(=O)N[C@H](C(=O)NCC(=O)N[C@@H](CO)C(=O)N[C@@H](CC(N)=O)C(=O)N[C@H](C(=O)N1C[C@H](O)C[C@H]1C(N)=O)[C@@H](C)O)C(C)C)[C@@H](C)O [PD145] ({C20 diacid-βAsp}-KCNTATCATQRLADFLRHSSNNLKPILPPTNVGSNT[Hyp]-NH2; disulfide 2-7)
Dissolution property [1]: Clear
Freeze storage property [1]: Clear
Freeze storage yield [1]: 100.88%
activity (weight reduction effect) compared with PD065 [2]: better than that of the PD065

CC[C@H](C)[C@H](NC(=O)[C@@H]1CCCN1C(=O)[C@H](CCCCN)NC(=O)[C@H](CC(C)C)NC(=O)[C@H](CC(N)=O)NC(=O)[C@H](CC(N)=O)NC(=O)[C@H](CO)NC(=O)[C@H](CO)NC(=O)[C@H](Cc1c[nH]cn1)NC(=O)[C@H](CCCNC(=N)N)NC(=O)[C@H](CC(C)C)NC(=O)[C@H](Cc1ccccc1)NC(=O)[C@H](CC(=O)O)NC(=O)[C@H](C)NC(=O)[C@H](CC(C)C)NC(=O)[C@H](CCCNC(=N)N)NC(=O)[C@H](CCC(N)=O)NC(=O)[C@@H](NC(=O)[C@H](C)NC(=O)[C@@H]1CSSC[C@H](NC(=O)[C@H](CCCCN)NC(=O)C2CCN(C(=O)CCCCCCCCCCCCCCCCCCC(=O)O)CC2)C(=O)N[C@@H](CC(N)=O)C(=O)N[C@@H]([C@@H](C)O)C(=O)N[C@@H](C)C(=O)N[C@@H]([C@@H](C)O)C(=O)N1)[C@@H](C)O)C(=O)N[C@@H](CC(C)C)C(=O)N1CCC[C@H]1C(=O)N1CCC[C@H]1C(=O)N[C@H](C(=O)N[C@@H](CC(N)=O)C(=O)N[C@H](C(=O)NCC(=O)N[C@@H](CO)C(=O)N[C@@H](CC(N)=O)C(=O)N[C@H](C(=O)N1C[C@H](O)C[C@H]1C(N)=O)[C@@H](C)O)C(C)C)[C@@H](C)O [PD147] ({C20 diacid-Inp}-KCNTATCATQRLADFLRHSSNNLKPILPPTNVGSNT[Hyp]-NH2; disulfide 2-7)
Dissolution property [1]: Clear
Freeze storage property [1]: Clear
Freeze storage yield [1]: 106.44%
activity (weight reduction effect) compared with PD065 [2]: better than that of the PD065

CC[C@H](C)[C@H](NC(=O)[C@@H]1CCCN1C(=O)[C@H](CCCCN)NC(=O)[C@H](CC(C)C)NC(=O)[C@H](CC(N)=O)NC(=O)[C@H](CC(N)=O)NC(=O)[C@H](CO)NC(=O)[C@H](CO)NC(=O)[C@H](Cc1c[nH]cn1)NC(=O)[C@H](CCCNC(=N)N)NC(=O)[C@H](CC(C)C)NC(=O)[C@H](Cc1ccccc1)NC(=O)[C@H](CC(=O)O)NC(=O)[C@H](C)NC(=O)[C@H](CC(C)C)NC(=O)[C@H](CCCNC(=N)N)NC(=O)[C@H](CCC(N)=O)NC(=O)[C@@H](NC(=O)[C@H](C)NC(=O)[C@@H]1CSSC[C@H](NC(=O)[C@H](CCCCN)NC(=O)COCCOCCNC(=O)COCCOCCNC(=O)C[C@H](NC(=O)CCCCCCCCCCCCCCCCCCC(=O)O)C(=O)O)C(=O)N[C@@H](CC(N)=O)C(=O)N[C@@H]([C@@H](C)O)C(=O)N[C@@H](C)C(=O)N[C@@H]([C@@H](C)O)C(=O)N1)[C@@H](C)O)C(=O)N[C@@H](CC(C)C)C(=O)N1CCC[C@H]1C(=O)N1CCC[C@H]1C(=O)N[C@H](C(=O)N[C@@H](CC(N)=O)C(=O)N[C@H](C(=O)NCC(=O)N[C@@H](CO)C(=O)N[C@@H](CC(N)=O)C(=O)N[C@H](C(=O)N1C[C@H](O)C[C@H]1C(N)=O)[C@@H](C)O)C(C)C)[C@@H](C)O [PD183] ({C20 diacid-βAsp-AEEA-AEEA}-KCNTATCATQRLADFLRHSSNNLKPILPPTNVGSNT[Hyp]-NH2; disulfide 2-7)
activity (weight reduction effect) compared with PD065 [2]: better weight reduction effect
